# According to PubChem BioAssay AID540317 (National Center for Advancing Translational Sciences (NCATS), 2011):
# About 2,200 (0.56%) of roughly 390,000 compounds were called active. Inconclusive means that the source gave no clear call. Such entries were picked first, then a sample of the others. Calls come from the whole dose curve; as a rule, active = well fitted inhibition curve with a large enough effect; inconclusive = small, poorly fitted or top-dose-only effect; inactive = no such curve, though single readings can be large or run the other way. Potencies beside an inconclusive call are fits to weak or partial responses and may not hold up.
# Molecular target: Chromobox protein homolog 1 (Homo sapiens) (UniProt P83916)
# Chain of UniProt P83916 (P83916 whole entry, looked up): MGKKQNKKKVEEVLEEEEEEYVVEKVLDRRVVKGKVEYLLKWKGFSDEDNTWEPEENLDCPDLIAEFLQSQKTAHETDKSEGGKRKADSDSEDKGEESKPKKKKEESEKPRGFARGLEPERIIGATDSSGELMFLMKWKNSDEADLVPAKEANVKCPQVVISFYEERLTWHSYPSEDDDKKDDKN
# Test: HTS for Inhibitors of HP1-beta Chromodomain Interactions with Methylated Histone Tails; note: nearly all actives have a fitted effect of over 70% in size
# Settings: AlphaScreen HP1-beta / biotin-H3K9me3 peptide binding; series mostly up to 114 µM; activity change, negative = inhibition: at the top concentration
# Outline: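 HP1-beta protein (50 nM final) preincubated 30 min at room temperature with biotinylated H3(1-18)K9me3 peptide (50 nM) in PBS pH 7.4, 0.01% Tween-20, then compound added for 30 min. AlphaScreen streptavidin donor/nickel chelate acceptor beads (10 ug/mL final), 30 min dark, luminescence read.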
# Potency is the fitted concentration of half-maximal effect; tags give direction and shape of the fitted curve.
Compound,Potency,"activity change, negative = inhibition"
COc1ccccc1OCCn1ccnc1,"inconclusive: 50.1 µM [inhibitor, partial curve, poor fit]",
CN(C)CCOc1ccc(-c2c(-c3ccccc3)sc3ccccc23)cc1,"inconclusive: 44.7 µM [inhibitor, partial curve]",
Cc1ccc(NC(=O)c2cc3c(s2)CCCC3)cc1S(=O)(=O)Nc1ccccc1Cl,"inconclusive: 25.1 µM [inhibitor, single point]",
CCOC(=O)C1=C(CN2c3ccccc3CC2C)NC(=O)NC1c1ccccc1 (stereo not given),"inconclusive: 39.8 µM [inhibitor, partial curve, poor fit]",
Cc1cc(N2C(=O)C(O)=C(C(=O)c3cccs3)C2c2cccc(Br)c2)no1 (stereo not given),,inactive: -8.15%
Cc1ccc(-c2nn(-c3ccccc3)cc2/C=N/n2c(-c3ccncc3)n[nH]c2=S)cc1,,inactive: 17.5%
C=CCOc1c(Br)cc(CNc2ccc(NC(=O)CCC)cc2)cc1OCC,"inconclusive: 22.4 µM [inhibitor, full curve]",
Cc1ccc(CNc2oc(-c3cccs3)nc2C#N)cc1,"inconclusive: 22.4 µM [inhibitor, partial curve, poor fit]",
O=C(NNc1c2ccccc2nc2ccccc12)c1cc2ccccc2cc1O,"inconclusive: 7.08 µM [inhibitor, full curve]",
O=Cc1cc(Cl)ccc1OCCN1CCC(Cc2ccccc2)CC1,"inconclusive: 20 µM [inhibitor, full curve]",
Cc1nn2c3c(cnc2c1-c1ccc(Cl)cc1)C(=O)CC(c1ccco1)C3 (stereo not given),"inconclusive: 89.1 µM [inhibitor, single point]",
CCN(CC)c1ccc(S(=O)(=O)N2CCOCC2)cc1NC(=O)CNCc1cccc(Cl)c1,"inconclusive: 15.8 µM [inhibitor, full curve]",
Clc1ccccc1-c1nn2c(-c3ccccn3)nnc2s1,"inconclusive: 31.6 µM [inhibitor, single point]",
CCN(CC)C(=O)c1ccc(C(=O)c2c(C)cc(C)cc2C)cc1,,inactive: 11.3%
Cc1cc(NC(=O)CN2CCN(c3ccc(O)cc3)CC2)no1,"inconclusive: 89.1 µM [inhibitor, single point]",
COc1ccc(CN=Cc2[nH]c3ccc(Br)c(Cl)c3c2O)cc1,"inconclusive: 28.2 µM [inhibitor, partial curve, poor fit]",
Cc1csc(NC(=O)CN2CCCCCC2)n1,"inconclusive: 11.2 µM [inhibitor, full curve]",
Cn1c(=O)c2[nH]c(N=NNc3ccccc3F)nc2n(C)c1=O,active: 20 µM,
O=C(NCCCN1CCCC1=O)c1ccc2c(=O)n(-c3ccccc3F)c(=S)[nH]c2c1,,inactive: 29.3%
COc1ccc(NC(=O)/C(C#N)=C\c2ccc(OCc3ccc(C(=O)O)cc3)c(OC)c2)cc1,"inconclusive: 39.8 µM [inhibitor, partial curve]",
Cc1cccc(Cn2c(N3CCN(C)CC3)nc3c2c(=O)n(C)c(=O)n3C)c1,,inactive: 16.6%
CCS(=O)(=O)NCCc1csc2nc(-c3ccc(OC)cc3)nn12,,inactive: 37.1%
Cc1ccc(C(=O)COC(=O)c2cc(=O)[nH]c3ccccc23)cc1C,"inconclusive: 89.1 µM [inhibitor, partial curve, poor fit]",

Compound,Potency,"activity change, negative = inhibition"
O=C(/C=C/c1cc2ccccc2o1)c1ccccc1O,"inconclusive: 20 µM [inhibitor, partial curve]",
Cc1cc(C([O-])=C(C(=S)Nc2ccc(F)cc2)[n+]2ccccc2)c(C)n1-c1ccc(F)cc1,active: 50.1 µM,
CC1CN(CCOc2ccc(F)cc2)CC(C)O1 (stereo not given),"inconclusive: 14.1 µM [inhibitor, partial curve, poor fit]",
Cc1ccc(-c2nc(N)s[n+]2-c2ccccc2)cc1,"inconclusive: 20 µM [inhibitor, partial curve, poor fit]",
Cc1cc(C)cc(-n2ccnc2SCC(=O)Nc2ccccc2F)c1,"inconclusive: 10 µM [inhibitor, partial curve]",
CCc1cccc(NC(=O)CC(c2ccc(OC)cc2)N2Cc3ccccc3C2=O)c1 (stereo not given),"inconclusive: 79.4 µM [inhibitor, partial curve, poor fit]",
CCOc1ccccc1NC(=O)Cn1c(=O)n(-c2ccc(C)cc2)c(=O)c2c1cnn2C,,inactive: 31.5%
NC(=O)CC(NC(=O)Cc1ccc(Cl)cc1)c1ccc(NCCc2ccccc2F)c([N+](=O)[O-])c1 (stereo not given),,inactive: 24.9%
O=[N+]([O-])c1ccccc1CNC1CCCc2ccccc21 (stereo not given),"inconclusive: 56.2 µM [inhibitor, single point]",
Cc1cccc(-c2nc(Nc3ccc(O)cc3)c3ccccc3n2)c1,"inconclusive: 28.2 µM [inhibitor, single point]",
CCOC(=O)C1CCN(C(=O)C2CCC(=O)N(Cc3cccc(C(F)(F)F)c3)C2)CC1 (stereo not given),,inactive: 13.9%
O=C(O)c1ccc(Cl)c(NC(=S)NC(=O)c2cccc(COc3ccccc3)c2)c1,"inconclusive: 50.1 µM [inhibitor, partial curve]",
CCOC(=O)c1cc(-c2nnc(SCC(=O)Nc3ccc(F)cc3)o2)c(C)nc1C,"inconclusive: 31.6 µM [inhibitor, partial curve, poor fit]",
N#Cc1c2n(c3c(=S)nc[nH]c13)CCCCC2,,inactive: -11.9%
COc1ccc(C)cc1-n1nnnc1SCC(=O)NC1CCS(=O)(=O)C1 (stereo not given),,inactive: 37.7%
O=C(CCS(=O)(=O)c1ccccc1Cl)NCc1ccc(F)cc1,,inactive: 65.9%
CCOC(=O)c1c(NC(=S)Nc2ccc(OC)cc2)sc2c1CCC2,"inconclusive: 39.8 µM [inhibitor, partial curve, poor fit]",
COc1cc(C#CC#CCN2CCCCC2)ccc1O,"inconclusive: 50.1 µM [inhibitor, partial curve, poor fit]",
CCC(=O)NC(NC(=S)Nc1c(C)n(C)n(-c2ccccc2)c1=O)C(Cl)(Cl)Cl (stereo not given),"inconclusive: 7.94 µM [inhibitor, full curve, poor fit]",
CCOC(=O)Cc1csc(N)n1,,inactive: 16.6%
Nc1ccc(C(=O)Nc2ccc(Nc3ccncc3)cc2)cc1,,inactive: 13.5%
Cn1c2c(c3ccccc31)CCN(CCCCN1CCN(c3ccccc3)CC1)C2=O,"inconclusive: 50.1 µM [inhibitor, single point]",
